{"source": "PubChem BioAssay AID1347430", "about": "(National Center for Advancing Translational Sciences (NCATS), 2020)", "note": "In all, about 91,000 compounds went through this assay and about 130 (0.14%) were called active. The shares of active, inactive and inconclusive entries below differ from those in the screen. Calls come from the whole dose curve; as a rule, active = well fitted inhibition curve with a large enough effect; inconclusive = small, poorly fitted or top-dose-only effect; inactive = flat fitted curve, though single readings scatter. Potencies beside an inconclusive call are fits to weak or partial responses and may not hold up.", "data": [{"test_system": "Uracil-DNA glycosylase", "experiment": "Primary qHTS assay for inhibitors of Activation Induced Cytidine Deaminase (AID): UDG Counterscreen signal; note: nearly all actives have a fitted effect of over 65% in size; note: potency is the fitted concentration of half-maximal effect; tags give direction and shape of the fitted curve; for activity change, negative = inhibition: % is set by controls: 0 for no effect and ±100 for the full control effect", "details": "FRET deamination/UDG coupled assay, UDG read, 4 h; activity change, negative = inhibition: at 115 µM (top of the series)", "values": [{"compound": "COc1ccc(CC(=O)NCC(c2cccs2)S(=O)(=O)c2ccc(C)cc2)cc1", "note": "(configuration not stated)", "Potency": "inconclusive: 89.1 µM [inhibitor, partial curve, poor fit]"}, {"compound": "CCCN(C(=O)c1cc2c(=O)[nH]c3ccc(C)cc3c2s1)c1ccc(CC)cc1", "Potency": "inconclusive: 89.1 µM [inhibitor, single point]"}, {"compound": "COc1ccc(C2=NC(c3ccncc3)=Nc3ccc(OC)cc3N2)cc1", "activity change, negative = inhibition": "inactive: -26.4%"}, {"compound": "CCC(C)NC(=O)c1snnc1-c1ccc(OC)cc1", "note": "(configuration not stated)", "activity change, negative = inhibition": "inactive: 4.45%"}, {"compound": "CCOc1ccc(NS(=O)(=O)c2cc3c(cc2Cl)NC(=O)CO3)cc1", "Potency": "inconclusive: 79.4 µM [inhibitor, single point]"}, {"compound": "CCCCC(=O)OC1=C(C(=O)c2ccccc2)N(CCC)S(=O)(=O)c2ccccc21", "Potency": "inconclusive: 100 µM [inhibitor, single point]"}, {"compound": "O=Cc1cc(Cc2ccccc2Cl)cc(Br)c1O", "activity change, negative = inhibition": "inactive: -13.5%"}, {"compound": "CC1CCCc2sc3nc(SCC(=O)c4ccc(Br)cc4)nc(N)c3c21", "note": "(configuration not stated)", "Potency": "inconclusive: 79.4 µM [inhibitor, partial curve, poor fit]"}, {"compound": "CCCCC(CC)C(=O)Nc1c(F)c(F)c(F)c(F)c1F", "note": "(configuration not stated)", "activity change, negative = inhibition": "inactive: 2.53%"}, {"compound": "CCOc1ccccc1CN1CCN(S(=O)(=O)c2ccccc2)CC1", "Potency": "inconclusive: 89.1 µM [inhibitor, single point]"}, {"compound": "CC(=O)c1cccc(NC(=O)c2oc3c(c2C)-c2nn(Cc4ccc(Cl)cc4)cc2CC3)c1", "Potency": "inconclusive: 39.8 µM [inhibitor, single point]"}, {"compound": "Fc1ccc(NC(=S)NC2CC2)cc1Cl", "activity change, negative = inhibition": "inactive: 15.8%"}, {"compound": "Cc1cccc(NS(=O)(=O)c2c(C)nc3sccn3c2=O)c1C", "Potency": "inconclusive: 89.1 µM [inhibitor, single point]"}, {"compound": "Cc1cccc(NC(=O)Cc2nc(-c3ccccc3)oc2C)n1", "activity change, negative = inhibition": "inactive: 3.87%"}, {"compound": "CCOC(=O)C1CCCN(CC(=O)N2CCCc3c2c(=O)oc2ccc(OCc4ccccc4)cc32)C1", "note": "(configuration not stated)", "Potency": "inconclusive: 79.4 µM [inhibitor, partial curve, poor fit]"}, {"compound": "CCc1ccc(NC(=O)c2sc3ncnc(N(C)C4CCCCC4)c3c2C)cc1", "Potency": "active: 79.4 µM"}, {"compound": "CC(C)C(C)NC(=O)CSc1ccc2ccccc2n1", "note": "(configuration not stated)", "activity change, negative = inhibition": "inactive: 1.37%"}, {"compound": "CC(C)c1ccc(S(=O)(=O)c2nnn3c2nc(N2CCN(C)CC2)c2sccc23)cc1", "activity change, negative = inhibition": "inactive: 18.5%"}, {"compound": "COc1cccc(CNC(=O)c2ccc3nc(-c4ccc(F)cc4)c(-c4ccc(F)cc4)nc3c2)c1", "Potency": "inconclusive: 15.8 µM [inhibitor, full curve, poor fit]"}, {"compound": "Cc1ccc2nc(-c3ccc(O)cc3)sc2c1", "activity change, negative = inhibition": "inactive: -10.6%"}, {"compound": "Cc1ccc(CNC(=O)COCc2cc(-c3cccs3)on2)cc1", "Potency": "inconclusive: 70.8 µM [inhibitor, single point]"}, {"compound": "Cc1ccc(OC(C)C(=O)Nc2ccc3nsnc3c2)cc1C", "note": "(configuration not stated)", "activity change, negative = inhibition": "inactive: -1.88%"}, {"compound": "Cc1c(C#N)c(N)nc2c3c(sc12)NC(=O)CC3c1ccccc1Cl", "note": "(configuration not stated)", "activity change, negative = inhibition": "inactive: 13.6%"}, {"compound": "CCOc1ccc(-n2c(=O)c3c(C)c(C)sc3n(CC(=O)C(C)(C)C)c2=O)cc1", "Potency": "inconclusive: 56.2 µM [inhibitor, partial curve, poor fit]"}, {"compound": "CC(=O)c1ccc(N2CCN(C(=O)c3cn(C)c(=O)c4c3c3ccccc3n4C)CC2)cc1", "Potency": "inconclusive: 89.1 µM [inhibitor, single point]"}, {"compound": "CCCCN(C)C(=O)Cn1c(=O)n(Cc2ccc3c(c2)OCO3)c(=O)c2sccc21", "activity change, negative = inhibition": "inactive: -14.7%"}, {"compound": "CCCCNC(=O)c1c(C)oc2ncn(CC(C)C)c(=O)c12", "Potency": "inconclusive: 100 µM [inhibitor, single point]"}, {"compound": "Cc1ccccc1OCC(=O)Nc1cc(-c2cccc(Br)c2)nn1-c1ccccc1", "Potency": "inconclusive: 89.1 µM [inhibitor, single point]"}, {"compound": "CCc1ccc(-c2[nH]nc3nc(-c4ccc(OC)cc4)cc(C(=O)NCCc4ccc(OC)c(OC)c4)c23)cc1", "Potency": "inconclusive: 89.1 µM [inhibitor, single point]"}, {"compound": "CCN(CC)S(=O)(=O)c1cccc(NC(=S)Nc2ccc(C)c(C)c2)c1", "activity change, negative = inhibition": "inactive: -9.67%"}, {"compound": "COc1ccc(C)cc1NC(=O)CSc1nc(=O)n(Cc2ccncc2)c2c1CCC2", "Potency": "inconclusive: 100 µM [inhibitor, partial curve, poor fit]"}, {"compound": "COc1ccc(C(=O)NCCc2sc(-c3ccc(Cl)cc3)nc2C)c(OC)c1", "Potency": "inconclusive: 28.2 µM [inhibitor, full curve, poor fit]"}, {"compound": "CCCN1C(=O)C(Cc2nc3ccccc3c(=O)n2-c2ccccc2)c2cc(C)ccc21", "note": "(configuration not stated)", "Potency": "inconclusive: 25.1 µM [inhibitor, full curve, poor fit]"}, {"compound": "COc1cccc(NC(=O)CSc2nc3ccccc3n2C)c1", "Potency": "inconclusive: 100 µM [inhibitor, single point]"}, {"compound": "CC(C)C(=O)N(Cc1ccc(-c2cccc(Cl)c2)o1)C1CCS(=O)(=O)C1", "note": "(configuration not stated)", "activity change, negative = inhibition": "inactive: -1.61%"}, {"compound": "COC(=O)CSc1ncc2c(n1)-c1ccccc1N(Cc1ccccc1C)S2(=O)=O", "Potency": "inconclusive: 89.1 µM [inhibitor, partial curve, poor fit]"}, {"compound": "Cc1nn(-c2ccccc2)c2c1N(CCCC(=O)NCc1ccc(N(C)C)cc1)C(=O)CS2", "Potency": "inconclusive: 100 µM [inhibitor, single point]"}, {"compound": "Cn1nc(C(=O)OCC(=O)Nc2ccc(OCc3ccccc3)cc2)c2ccccc2c1=O", "activity change, negative = inhibition": "inactive: -1.45%"}, {"compound": "Cc1ccc(C)c(S(=O)(=O)c2nnn3c2nc(Nc2ccc(C)c(C)c2)c2sccc23)c1", "Potency": "inconclusive: 89.1 µM [inhibitor, single point]"}, {"compound": "CCOc1ccc(-n2c(/C=C/c3cccc(F)c3)nc3cc(OC)c(OC)cc3c2=O)cc1", "Potency": "inconclusive: 89.1 µM [inhibitor, single point]"}, {"compound": "COc1ccc(CCCc2nnc(SCC(=O)Nc3cccc(C)c3)o2)cc1", "Potency": "inconclusive: 2.82 µM [inhibitor, full curve, poor fit]"}, {"compound": "COc1ccc(Cn2c(CO)cnc2SCc2ccc(F)cc2)cc1", "activity change, negative = inhibition": "inactive: -24%"}, {"compound": "CCn1ccc2c(OCC(=O)NCc3ccccc3)cccc2c1=O", "Potency": "inconclusive: 89.1 µM [inhibitor, single point]"}, {"compound": "CC(C)(C)C1CCc2nc(NC(=O)c3ccc([N+](=O)[O-])cc3)sc2C1", "note": "(configuration not stated)", "Potency": "inconclusive: 89.1 µM [inhibitor, partial curve, poor fit]"}, {"compound": "CC(C)Oc1ccc(C(=O)Nc2ccc3oc(-c4cccnc4)nc3c2)cc1", "Potency": "inconclusive: 89.1 µM [inhibitor, single point]"}, {"compound": "COC(=O)c1sc(N2C(=O)C(=O)/C(=C(/O)c3ccc(C)c(F)c3)C2c2ccccc2F)nc1C", "note": "(configuration not stated)", "activity change, negative = inhibition": "inactive: -4.91%"}, {"compound": "Fc1nc(F)c(F)c(Sc2nc3ccccc3s2)c1F", "activity change, negative = inhibition": "inactive: -2.22%"}, {"compound": "Cc1cccc(NC(=O)CCN2CCN(c3ccccc3F)CC2)c1", "Potency": "inconclusive: 100 µM [inhibitor, single point]"}, {"compound": "CCCN(C(=O)Cn1ncc2c1-c1ccccc1OC2)c1cccc(C)c1", "Potency": "inconclusive: 89.1 µM [inhibitor, partial curve, poor fit]"}, {"compound": "Cc1ccc2c(c1)N(S(=O)(=O)c1cc(-c3onc(C)c3C)ccc1C)CCO2", "Potency": "inconclusive: 39.8 µM [inhibitor, full curve]"}, {"compound": "O=S(=O)(Nc1nc2ccccc2nc1N1CCCCCC1)c1ccc(Cl)cc1", "Potency": "inconclusive: 100 µM [inhibitor, single point]"}, {"compound": "C=CCNc1nc(-c2cc(C)n(-c3c(C)n(C)n(-c4ccccc4)c3=O)c2C)cs1", "activity change, negative = inhibition": "inactive: 17.3%"}, {"compound": "O=C(CSc1ncnc2ccccc12)Nc1ccc(F)cc1", "activity change, negative = inhibition": "inactive: -4.67%"}, {"compound": "CN(C)c1ccc(-c2nc(-c3ccco3)no2)cc1[N+](=O)[O-]", "Potency": "inconclusive: 79.4 µM [inhibitor, single point]"}, {"compound": "Cc1ccc(Cl)cc1-n1ncc2c(NCCCc3ccccc3)ncnc21", "Potency": "inconclusive: 100 µM [inhibitor, partial curve, poor fit]"}, {"compound": "Cc1ccc(-c2cc(C(=O)N(Cc3ccc(C(C)(C)C)cc3)Cc3ccco3)no2)cc1", "Potency": "inconclusive: 89.1 µM [inhibitor, single point]"}, {"compound": "COc1ccc(N2CCN(Cc3cccn3-c3nnc(N4CCN(C5CCCCC5)CC4)s3)CC2)cc1", "Potency": "inconclusive: 17.8 µM [inhibitor, partial curve, poor fit]"}, {"compound": "CCOc1ccccc1CNC(=O)Cn1cc2c(n1)-c1c(oc(C(=O)N3CCCC3)c1C)CC2", "Potency": "inconclusive: 56.2 µM [inhibitor, partial curve, poor fit]"}, {"compound": "Cc1ccc(/C=C(/C#N)c2ccc(C(F)(F)F)cn2)cc1", "activity change, negative = inhibition": "inactive: 4.61%"}, {"compound": "COc1ccc(S(=O)(=O)NCCS(=O)(=O)N2CCN(c3ccccc3)CC2)cc1C", "activity change, negative = inhibition": "inactive: -4.13%"}, {"compound": "COc1ccc(CNC(=O)c2cc(-c3ccc(C)cc3)nc3n[nH]c(-c4ccc(Br)cc4)c23)cc1", "Potency": "inconclusive: 89.1 µM [inhibitor, single point]"}, {"compound": "CCN(c1ccccc1)c1ccc2cc(S(=O)(=O)N3CCCC3)ccc2n1", "Potency": "inconclusive: 25.1 µM [inhibitor, partial curve, poor fit]"}, {"compound": "COc1ccc2c(c1)c(C(C(=O)O)N1CCC(C(=O)O)CC1)cn2CC(=O)O", "note": "(configuration not stated)", "activity change, negative = inhibition": "inactive: -5.95%"}, {"compound": "O=C(COCc1cc(-c2ccc3c(c2)OCO3)on1)N1CCN(c2cccc(Cl)c2)CC1", "Potency": "inconclusive: 79.4 µM [inhibitor, partial curve, poor fit]"}, {"compound": "CNS(=O)(=O)c1cn(CC(=O)N2CCN(c3cccc(C)c3C)CC2)cc1S(=O)(=O)NC", "Potency": "inconclusive: 89.1 µM [inhibitor, single point]"}, {"compound": "O=c1cc(-c2ccccc2)nc(SCc2nc(-c3ccc(Cl)cc3)no2)[nH]1", "Potency": "inconclusive: 100 µM [inhibitor, single point]"}, {"compound": "CCCN(CCC)CC(O)Cn1cc(/C=C/C(=O)c2ccc(C)cc2)c2ccccc21", "note": "(configuration not stated)", "activity change, negative = inhibition": "inactive: -15.5%"}]}]}
